The text below walks through data of PubChem BioAssay AID1346428 (National Center for Advancing Translational Sciences (NCATS), 2018).

The whole screen tested about 48,000 compounds, of which about 1,200 (2.5%) were called active. Not shown: some 2% with an inconclusive outcome.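 How the source made its calls: active means activation of at least 60% and not above a set upper limit (about 1 call in 100 departs from these limits); inconclusive means activation of 40% to 60%, or above that upper limit; inactive means activation under 40%.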 Some of the results follow.

In the test the target is Probable G-protein coupled receptor 32 (Homo sapiens) (UniProt O75388). Description: qHTS for Agonists of Human Resolvin D1 Receptor DRV1. Further: 0% is about no effect. The conditions noted are these: CHO-K1 GPR32 beta-arrestin PathHunter luminescence, 90 min; at 76.9 µM; stronger effect = higher value; zero percent set by DMSO-only wells. The procedure, abridged: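 GPR32 activation in stably transfected CHO-K1 cells, detected as beta-arrestin recruitment by enzyme-fragment complementation. Compound exposure: 90 min, 37 °C.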
Chain of UniProt O75388 (O75388 whole entry, looked up, the tested form may be a part): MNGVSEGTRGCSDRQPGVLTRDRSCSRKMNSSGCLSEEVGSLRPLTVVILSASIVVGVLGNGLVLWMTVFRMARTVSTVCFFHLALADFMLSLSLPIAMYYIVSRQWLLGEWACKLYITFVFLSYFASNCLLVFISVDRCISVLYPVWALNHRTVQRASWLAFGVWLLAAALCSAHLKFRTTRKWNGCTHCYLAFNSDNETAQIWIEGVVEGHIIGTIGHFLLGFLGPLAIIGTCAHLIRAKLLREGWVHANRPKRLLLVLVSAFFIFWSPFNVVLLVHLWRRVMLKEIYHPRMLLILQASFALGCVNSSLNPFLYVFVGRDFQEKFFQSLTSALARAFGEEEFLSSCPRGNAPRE
For orientation: qHTS replaces the single test concentration by a dilution series.
Consider `COC(=O)c1sc(N2C(=O)c3oc4cc(C)c(C)cc4c(=O)c3C2c2ccccc2F)nc1C` (centres undefined), for which the activation was inactive: 2.99%.

On to `CCCN1C(=O)c2[nH]nc(-c3ccc(OC)cc3)c2C1c1ccccn1` (centres undefined), for which the activation was inactive: -1.5%. The value for `Cc1cccc(Cn2c(CN3CCC(C(=O)NCc4ccccc4Cl)CC3)cc3ccccc32)c1` was inactive: -55.7%. The value for `O=S(=O)(NCc1csc(-c2ccccc2)n1)c1ccccc1` was inactive: -4.98%; that for `COc1ccc(Cn2c(CNS(=O)(=O)c3ccc(Cl)s3)nc3cccnc32)cc1` was inactive: -22.1%.

For the molecule `Cc1ccc(C(=O)Nc2cc(-c3nc4cc(Cl)ccc4o3)ccc2C)c(C)c1`, the activation is inactive: 27.2%. For the molecule `O=C(c1cnn(-c2ccc(F)cc2)c1-n1cccc1)N1CCN(c2cccc(Cl)c2)CC1`, the activation is inactive: 11.5%. In the case of `CCOCCCNC(=O)C1CCN(c2nc3ccc(Cl)cc3[nH]2)CC1`, the activation is inactive: -2.91%. The value for `COc1ccc(CN2CCc3nc(N4CCN(c5ccc(F)cc5)CC4)ncc3C2)c(OC)c1OC` was inactive: -5.67%. The figure for `CCc1cccc(C)c1NC(=O)c1cc2ccccc2o1` is inactive: -7.44%; for `Cn1cc(S(=O)(=O)c2ccccc2)c(=O)c2cc(F)c(N3CCCC3)cc21` it is inactive: -3.93%. The figure for `O=C(NCc1ccccc1)c1ccc(CSc2nc3cccnc3n2Cc2ccccc2)cc1` is inactive: -3.37%. In the case of `COc1ccc(CCNC(=O)c2cc3c(=O)n4ccccc4nc3n2C)cc1`, the activation was inactive: -4.08%. The value for `CC(=O)OCC(CCn1cnc2cnc(N)nc21)COC(C)=O` was inactive: 0.199%; that for `NNc1nncc2ccccc12` was inactive: 27.1%; that for `COc1ccc(NC(=O)Cn2cc(S(=O)(=O)c3ccccc3)c(=O)c3cc(C)ccc32)cc1Cl` was inactive: -1.79%. On to `CCC(Cn1nnc2ccccc2c1=O)NC(=O)Nc1cc(OC)cc(OC)c1` (centres undefined), for which the activation is inactive: -30.4%.

For `Cc1cc2c(cc3c(SCc4cccc(Cl)c4)nnc(C)n32)o1`, the activation was inactive: -33.1%. In the case of `CCC(=O)N1CCc2cc(Br)cc(S(=O)(=O)N3CCC(C(=O)Nc4cccc(C)c4)CC3)c21`, the activation was inactive: -5.94%. For `COc1cccc(N2CCN(C(=O)c3ccc4c(Cl)c5c(nc4c3)CCCC5)CC2)c1`, the activation was inactive: -14.7%. As to `C[C@H](CN1CCCC1)C(=O)c1ccc(C(F)(F)F)cc1`, the activation was inactive: 6.94%. The value for `CCc1ccc(NC(=O)CSC2=Nc3ccccc3C3=NC(CC(=O)NCc4cccs4)C(=O)N23)cc1` (centres undefined) was inactive: -9.37%; that for `CCN(CC)C(=O)c1c(-c2ccccc2)c(-c2ccccc2)nn(C)c1=O` was inactive: -17.9%; that for `CC(=O)N1CCCc2cc(S(=O)(=O)N3CCC(C(=O)Nc4cccc(Cl)c4C)CC3)ccc21` was inactive: -2.39%. On to `COc1ccc(N2CCN(C(=O)CCn3nc(C)c(S(=O)(=O)N4CCCC4)c3C)CC2)cc1`, for which the activation was inactive: -14%. The value for `O=C(CSc1nnc(-c2cccs2)o1)Oc1ccccc1` was inactive: 1.58%. The value for `CCN(CC)CCCNC(=O)c1ccc(-c2nc(CN3CCc4ccccc43)c(C)o2)cc1` was active: 95.3%; that for `O=C(CSc1nnc(-c2ccccc2)o1)c1cccc([N+](=O)[O-])c1` was inactive: 23.2%; that for `O=C(Cn1ncc2c3ccccc3n(Cc3ccc(Cl)cc3)c2c1=O)NCc1ccccn1` was inactive: 4.07%. With `NC(=O)c1ccccc1NC(=O)c1ccc(-c2ccc(Br)cc2)o1`, the activation was inactive: 5.01%.

Regarding `COC(=O)c1cc(S(=O)(=O)N2CCN(c3cccc(C)c3)C(C)C2)cn1C` (centres undefined), the activation was inactive: -22.7%. For `CCOc1ccc(C(=O)Nc2ccc3nc(SCCOc4ccccc4)sc3c2)cc1`, the activation was inactive: 1.37%. For the molecule `CCc1ccc(-n2cnc3cc(C(=O)NCc4ccc(C)cc4)ccc32)cc1`, the activation is inactive: -6.44%. The figure for `CCN(CC)CCCNC(=O)c1ccc2c(=O)n(CCc3ccccc3)c(=O)[nH]c2c1` is inactive: -7.45%; for `CC(=O)c1cccc(NC(=O)Cn2nc(C)n3cccc3c2=O)c1` it is inactive: -7.87%; for `CCOC(=O)c1c(C)[nH]c(CCC(=O)NCc2ccc(CC)cc2)c1C` it is inactive: -13.3%. The figure for `Cc1ccc(S(=O)(=O)Nc2cc3c(cc2NCc2ccccc2)n(C)c(=O)n3C)c(C)c1` is inactive: 19.1%; for `Fc1cccc(-n2ncc3c2ncn2nc(COc4ccc(Cl)cc4)nc32)c1` it is inactive: 0.854%; for `CCCC1=Nc2cc(C(=O)NCc3ccc(OC)cc3)ccc2Sc2ccc(C)cc21` it is inactive: -3.55%. Regarding `O=C(CSCc1cccc(F)c1)NCc1ccccc1`, the activation was inactive: -5.99%. The figure for `O=C(CCc1nc(CN2CCN(S(=O)(=O)c3ccc(Cl)cc3)CC2)no1)N1CCCCC1` is inactive: -3.35%. On to `Cc1cccc(Cn2c(SCc3ccc(C(=O)NCCc4ccccc4)cc3)nc3ccncc32)c1`, for which the activation is inactive: -1.32%. Regarding `CCc1cccc(C)c1NC(=O)Cn1ccn(-c2cccc(OC)c2)c(=O)c1=O`, the activation was inactive: -5.47%. The figure for `COc1ccc(-c2cc3nc(C)c(CCC(=O)Nc4ccccc4C(C)=O)c(C)n3n2)c(OC)c1` is inactive: 29.1%; for `COc1ccc(-n2c(=O)c3c(c4cc(OC)ccc4n3C)n(Cc3cccc(OC)c3)c2=O)cc1` it is inactive: -3.9%. The value for `O=C(CCC1N=C2c3ccccc3N=C(SCc3ccc(F)cc3)N2C1=O)NCc1ccc(F)cc1` (centres undefined) was inactive: 2.75%; that for `C1CCN2C[C@@H]3C[C@@H](CN4CCCC[C@@H]34)[C@H]2C1` was inactive: -9.08%. The value for `CCOc1ccc(-c2nc(CSCC(=O)N3CCN(c4ccc(F)cc4)CC3)c(C)o2)cc1` was inactive: -14.1%; that for `CCOc1ccc(C(=O)NCCn2cc(SCC(=O)Nc3ccc4c(c3)OCCO4)c3ccccc32)cc1` was inactive: -5.68%; that for `Cc1nc2scc(C)n2c(=O)c1S(=O)(=O)Nc1ccc(N2CCOCC2)c(Cl)c1` was inactive: 6.51%. Take `CN1CCc2c(sc3c2C(=O)NC(c2ccc(OC(=O)c4ccc(C(C)(C)C)cc4)cc2)N3)C1` (centres undefined): the activation was active: 64.5%. The value for `O=C(NCCc1c[nH]c2ccccc12)c1cccnc1` was inactive: 17.1%; that for `COCCCNc1oc(/C=C/c2cc(OC)c(OC)c(OC)c2)nc1C#N` was inactive: -13.4%; that for `CCN(CC)C(=O)c1sc2c(c1C)c(=O)n(-c1ccc(Cl)c(Cl)c1)c(=O)n2Cc1ccccc1C#N` was inactive: -2.46%.
